Hit rate of the full screen: of about 310,000 compounds, about 2,200 (0.71%) showed an effect of 50% or more. The effect is printed as a negative number. The list shows a part of the results.
What follows are compounds tested against human ether-à-go-go-related gene (hERG) potassium channel (human, UniProt Q12809) (assay: primary screen, population patch clamp on CHO cells stably expressing hERG).
Chain of human ether-à-go-go-related gene (hERG) potassium channel (Q12809 whole entry, looked up): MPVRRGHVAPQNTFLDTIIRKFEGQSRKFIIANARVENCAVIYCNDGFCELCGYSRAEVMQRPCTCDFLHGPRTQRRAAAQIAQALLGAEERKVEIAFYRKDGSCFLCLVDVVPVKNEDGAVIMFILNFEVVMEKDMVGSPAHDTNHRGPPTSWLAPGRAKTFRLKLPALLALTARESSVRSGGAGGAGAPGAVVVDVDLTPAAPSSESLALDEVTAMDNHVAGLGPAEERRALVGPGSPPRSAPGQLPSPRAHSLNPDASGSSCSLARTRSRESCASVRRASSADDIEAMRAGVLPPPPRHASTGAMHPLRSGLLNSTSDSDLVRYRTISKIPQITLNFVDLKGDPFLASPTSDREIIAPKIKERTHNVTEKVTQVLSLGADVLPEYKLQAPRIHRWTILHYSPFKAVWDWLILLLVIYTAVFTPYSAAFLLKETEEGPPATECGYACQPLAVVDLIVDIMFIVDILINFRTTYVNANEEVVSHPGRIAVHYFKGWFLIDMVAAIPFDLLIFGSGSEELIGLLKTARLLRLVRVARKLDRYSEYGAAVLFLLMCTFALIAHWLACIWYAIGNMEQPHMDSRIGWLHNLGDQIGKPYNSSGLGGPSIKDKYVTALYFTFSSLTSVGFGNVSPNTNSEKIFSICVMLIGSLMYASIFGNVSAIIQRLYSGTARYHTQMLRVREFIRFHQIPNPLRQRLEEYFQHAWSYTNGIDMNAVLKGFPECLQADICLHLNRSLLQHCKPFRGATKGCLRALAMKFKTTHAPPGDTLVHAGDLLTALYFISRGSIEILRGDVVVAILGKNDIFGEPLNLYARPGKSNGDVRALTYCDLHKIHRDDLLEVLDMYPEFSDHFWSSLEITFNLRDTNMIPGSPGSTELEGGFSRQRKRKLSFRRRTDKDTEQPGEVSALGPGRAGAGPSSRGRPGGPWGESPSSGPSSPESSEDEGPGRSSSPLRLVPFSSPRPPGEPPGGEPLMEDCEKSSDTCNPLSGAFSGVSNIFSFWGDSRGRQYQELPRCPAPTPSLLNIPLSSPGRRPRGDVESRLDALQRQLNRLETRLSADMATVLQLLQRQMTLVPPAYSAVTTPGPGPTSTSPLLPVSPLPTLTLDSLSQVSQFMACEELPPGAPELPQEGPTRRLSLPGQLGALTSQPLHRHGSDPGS

Compound | hERG current change (%, negative = inhibition) at 1uM
COc1cccc(NC(=O)CN(C)CC(=O)NC(C)c2ccccc2)c1 (stereo not drawn) | 1.71%
CC(=O)c1ccc(S(=O)(=O)N2CCC(NC(=O)Nc3cccc(F)c3)CC2)cc1 | 10.7%
CCNC(=O)C12CCC(C)(C(=O)O1)C2(C)C (stereo not drawn) | 12.2%
C/C(=N\NC(=O)CNC(=O)c1cccs1)c1ccc(Cl)c(Cl)c1 | 13.8%
CCC(C)SCc1nc2ccccc2[nH]1 (stereo not drawn) | 2.06%
Cc1ccc(NC(=O)CSC2=NN3CCCC(=O)N=C3S2)cc1Cl | 0.817%
CCOC(=O)C1(Cc2ccc(Cl)cc2)CCN(CCCn2cccn2)CC1 | -77%
O=C(CSc1nc(-c2ccccc2)cc(=O)[nH]1)Nc1ccccc1F | 16.8%
COc1ccc(CCNC(=O)c2nnn(-c3cccc(C)c3)c2N)cc1OC | -12.2%
COc1ccc(-c2noc(N3CCC(C(=O)Nc4ccc(OC)c(OC)c4)CC3)n2)cc1 | 1.78%
COc1ccc(CN(C)C(=O)c2ccc3ccccc3n2)cc1F | 8.73%
O=C(c1ccccc1)c1ccc(OCC(O)CN2CCN(Cc3ccccc3)CC2)cc1 (stereo not drawn) | -39.8%
Cc1cc(NC(=O)c2c(Cl)cccc2Cl)no1 | 13.6%
CCN(CC)C(=O)c1sc(NC(=O)c2ccc(Br)o2)c(C(=O)OC)c1C | 1.7%
C#C[C@@]1(O)CCC2C3CCC4=C/C(=N/OCC(=O)NC(C(=O)NC(CC(C)C)C(=O)O)C(C)C)CC[C@]4(C)C3CC[C@@]21C (stereo partly drawn) | 10.4%
Cc1nc2ccccc2c(=O)n1Nc1cccc(Cl)c1 | 1.73%
Cc1cccc(OCc2nnc(SCC(=O)Nc3cc(C)on3)n2C)c1 | -0.576%
Cc1ccc(NC(=O)COC(=O)C2CCN(c3ccc(C(F)(F)F)cn3)CC2)cc1C | 14.8%
CCOc1ccc(NC(=O)C2CCCN(c3nn4c(=O)cc(C)nc4s3)C2)cc1 (stereo not drawn) | 11.9%
Cc1c(C(=O)NN)nn(-c2ccc(Cl)cc2)c(=O)c1C#N | 11.6%
CCc1ccc(NC(=S)NC2CC3CCCC(C2)N3Cc2ccccc2)cc1 (stereo not drawn) | -30%
Cc1ccc(NC(=O)C(C)OC(=O)CCNS(=O)(=O)c2ccc(C)cc2)cc1 (stereo not drawn) | 3.63%
COc1ccc(Cl)cc1-c1nc(SCC(N)=O)n[nH]1 | 10.2%

Compound | hERG current change (%, negative = inhibition) at 1uM
S=C(NC1CC1)N1CCN(C(=S)NC2CC2)CC1 | 15.6%
Nc1ccccc1C(=O)OCC(=O)c1ccc2c(c1)OCCO2 | 12.4%
COc1ccc(C2C(C(=O)c3ccco3)=C(O)C(=O)N2CCN2CCOCC2)c(OC)c1 (stereo not drawn) | 19.1%
CCCS(=O)(=O)N1CCC(C(=O)Oc2ccc(OC)cc2)CC1 | 19.3%
Cn1c(=O)c2c(nc(CN3CCC(C(N)=O)CC3)n2CCc2ccccc2)n(C)c1=O | 8.7%
CCN(CC)CC(=O)Nc1ccc(C)cc1Br | 10.8%
c1ccc2c(Cn3ccnc3)c[nH]c2c1 | 9.33%
CCN(CC)S(=O)(=O)c1cc(C(=O)OCC(=O)Nc2ccc(-c3nc4ccc(C)cc4s3)cc2)ccc1F | 11.4%
COc1ccc(C(=O)N2CCc3cc(OC)c(OC)cc3C2)cc1OC | 1.85%
CC1(NC(=O)CSc2nnc(-c3c[nH]c4ccccc34)n2C2CC2)CCS(=O)(=O)C1 (stereo not drawn) | 8.77%
C/C=C/c1ccc(OCC(=O)Nc2cc(S(=O)(=O)N3CCOCC3)ccc2N2CCCC2)c(OC)c1 | 15.1%
Cc1ccc(N(CCC#N)C(=O)COC(=O)c2ccccc2SCC(=O)N2CCCC2)cc1 | 15.2%
Cc1nn(CC(=O)NCCCN2C(C)CCCC2C)c(=O)c2cc3occc3n12 (stereo not drawn) | 12.3%
Cc1cc(C(=O)CSc2nn3c(=O)c(C(C)(C)C)nnc3s2)c(C)n1-c1ccc(F)cc1 | -0.0322%
COc1cc2ccc(=O)oc2c2ccoc12 | 10.2%
O=C1CC(C(=O)N2CCOCC2)C2(CCCCC2)O1 (stereo not drawn) | 19.6%
COc1ccc(OC)c(CNC(=O)c2coc(=O)c3ccccc23)c1 | 11.3%
CN(c1ccc(OCC(=O)NC2CCCC2)cc1)S(=O)(=O)c1cccs1 | -9.67%
O=C(O)CN1C(=O)C2C3C=CC(C2C1=O)C1C(=O)N(CC(=O)O)C(=O)C31 (stereo not drawn) | 23.2%
Oc1ccccc1-c1nnc(SCCN2CCOCC2)n1Cc1ccccc1 | -7.71%
Cc1cccc(NC(=S)NCc2ccc3c(c2)cc(C)n3C)c1C | 5.83%
CCC(C)(C(=O)NC1CCCC1)N(C(=O)CNC(=O)c1ccccc1)c1c(C)n(C)n(-c2ccccc2)c1=O (stereo not drawn) | 12.2%

— paper PMC4336329 (PLoS ONE, 2015)
